From PubChem BioAssay AID488969 (Vanderbilt High Throughput Screening Facility, 2010)
The full ranking holds about 110,000 compounds; the median of “z-score” is about -0.1, and the highest 2% start at about 2. This is one part of the list.

Biological target: Metabotropic glutamate receptor 8 (Rattus norvegicus) (UniProt P70579)
Assay: mGluR8 Gi/Go-coupled signaling modulation – cell-based, rat, thallium flux, HTS, primary screen (AID 488969)
Settings: HEK293 rat mGluR8, GIRK (G protein-gated inwardly rectifying potassium channel) thallium flux, FluoZin2; at 10 µM; stronger effect = higher value; submaximal glutamate (EC20) added with thallium

UniProt P70579, sequence (P70579 whole entry, looked up): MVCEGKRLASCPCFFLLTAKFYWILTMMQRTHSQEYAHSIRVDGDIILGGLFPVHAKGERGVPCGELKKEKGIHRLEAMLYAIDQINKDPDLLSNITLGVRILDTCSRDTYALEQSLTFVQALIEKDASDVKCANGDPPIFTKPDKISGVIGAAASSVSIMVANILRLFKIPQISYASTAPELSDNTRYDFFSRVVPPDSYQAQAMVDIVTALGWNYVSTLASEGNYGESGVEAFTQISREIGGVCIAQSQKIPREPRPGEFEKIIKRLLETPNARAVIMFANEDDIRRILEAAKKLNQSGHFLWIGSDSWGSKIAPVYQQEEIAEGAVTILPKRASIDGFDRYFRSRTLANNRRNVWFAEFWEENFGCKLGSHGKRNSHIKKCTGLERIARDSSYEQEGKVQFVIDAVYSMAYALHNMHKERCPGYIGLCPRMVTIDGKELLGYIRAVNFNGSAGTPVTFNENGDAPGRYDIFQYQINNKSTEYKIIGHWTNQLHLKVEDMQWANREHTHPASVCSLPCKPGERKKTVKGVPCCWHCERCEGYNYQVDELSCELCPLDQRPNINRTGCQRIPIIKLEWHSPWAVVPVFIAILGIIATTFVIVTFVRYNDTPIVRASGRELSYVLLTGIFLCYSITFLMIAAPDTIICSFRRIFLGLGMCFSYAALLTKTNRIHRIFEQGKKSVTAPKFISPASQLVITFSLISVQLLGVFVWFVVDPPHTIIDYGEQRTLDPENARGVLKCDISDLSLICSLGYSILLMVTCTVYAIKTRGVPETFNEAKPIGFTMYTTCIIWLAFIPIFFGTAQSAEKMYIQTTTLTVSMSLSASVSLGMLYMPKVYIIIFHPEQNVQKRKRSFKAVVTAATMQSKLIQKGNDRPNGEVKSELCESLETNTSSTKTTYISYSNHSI

| SMILES | z-score |
| --- | --- |
| CC1CCN(C(=O)CN(C2CCCCC2)S(C)(=O)=O)CC1 | 0.23 |
| Cc1ccccc1N=C1NC(=O)CS1 | 0.516 |
| Cc1ccc2nc(CSc3nc(C)cc(C)c3C#N)[nH]c2c1 | -0.649 |
| O=c1c2ccccc2nc(SCc2cccc(F)c2)n1Cc1ccco1 | -0.373 |
| COc1ccc(-c2noc(CCCC(=O)Nc3ccc(C(N)=O)cc3)n2)cc1 | 0.0356 |
| O=c1[nH]c2ccccc2n1Cc1ccc(Cl)cc1 | 0.174 |
| C1=CN2CCC1C(c1ccccc1)C2 (stereo unspecified) | 2.05 |
| c1ccc(N(c2ccccc2)c2nc(-n3ccnc3)nc(-n3ccnc3)n2)cc1 | -0.953 |
| CCOC(=O)c1ccc(NC(=O)CN2C(=O)C3C4C=CC(C4)C3C2=O)cc1 (stereo unspecified) | 0.107 |
| O=C(Nc1cccc2ncccc12)c1ccc2c(c1)OCCO2 | 1.16 |
| COc1ccc(Nc2nc(N)nc(CN(C)C3CCCCC3)n2)cc1 | -0.422 |
| CN1C(=S)SC(C)(C)C1/[N+]([O-])=C/c1cccnc1 (stereo unspecified) | 0.179 |
| COc1ccccc1-n1c(SCC(=O)Nc2ccc3c(c2)OCO3)nc2c(c1=O)SCC2 | -0.513 |
| CCn1c2c(c3cc(OCC(C)C)ccc31)CCCC2=O | 0.201 |
| CC(=O)n1nc(-c2ccco2)nc1SCc1ccccc1 | 0.38 |
| CC(=O)Nc1nnc(-c2ccc(Cl)s2)o1 | -0.0573 |
| Cc1ccsc1/C=N\NC(=O)Cn1nnc2ccccc21 | -0.0229 |
| Cc1ccc(SC(=O)COc2ccccc2C)cc1 | -0.399 |
| O=C(NCCCN1CCOCC1)c1ccc(CS(=O)(=O)Cc2ccccc2Cl)o1 | 0.265 |
| Cc1cc(C)n2nc(SCc3cc(=O)oc4cc(C)c(C)cc34)nc2n1 | 0.128 |
| CCn1nc(C)c(/C=N/NC(=O)Cn2nccc2C)c1C | 0.126 |
| O=C(Cn1ncc2c3ccccc3n(Cc3ccc(F)cc3)c2c1=O)N1CCN(c2ncccn2)CC1 | -0.688 |
| CC(=O)Nc1ccc(NC(=O)C/C(C)=N/NC(=O)C(=O)N2CCCC2)cc1 | 0.739 |

| SMILES | z-score |
| --- | --- |
| Brc1ccc(CSc2nnc(-c3ccccn3)n2Cc2ccco2)cc1 | -0.651 |
| Cc1cc(OCC(=O)N2CCOCC2)cc2oc(=O)c3ccccc3c12 | 0.118 |
| CCC(C)(C)n1nnnc1CN1CCSCC1 | -0.142 |
| COCCNc1oc(-c2ccccc2Cl)nc1C#N | -0.0889 |
| COc1cc(NC(=O)CN(c2ccc(C)cc2)S(=O)(=O)c2c(C)nn(C)c2C)cc(OC)c1 | 0.144 |
| COc1ccc(-c2nc3ccccc3n2CCC(C)C)cc1OC | 0.0771 |
| CCOc1ccc(Br)cc1S(=O)(=O)Nc1ccc(C(=O)Nc2ccccc2OC)cc1 | -0.253 |
| CCCOn1nnnc1-c1ccccc1 | -0.314 |
| O=C(NCc1ccccc1)c1cccc(COc2cccc(Cl)c2)c1 | -0.221 |
| c1coc(CNc2ncnc3sc4c(c23)CCCCC4)c1 | -2.31 |
| COC(=O)c1sccc1NC(=O)/C=C/c1ccc(Cl)cc1 | 0.097 |
| Cc1nc2c(c(=O)n1CCC1=CCCCC1)c1nc3ccccc3nc1n2/N=C/c1ccccc1 | -0.0614 |
| N#Cc1nc(Cc2cccc3ccccc23)oc1N1CCOCC1 | -0.151 |
| CCCCOC(=O)CSC1=C(C#N)C(c2ccc3c(c2)OCO3)CC(=O)N1 (stereo unspecified) | -0.0947 |
| CCOC(=O)c1ccc(-c2ccc(/C=C(\C#N)C(=O)NCC3CCCO3)o2)cc1 (stereo unspecified) | -0.338 |
| Cn1c(CSc2nc3ccccc3s2)nnc1SCC(=O)NCCCN1CCOCC1 | 0.0122 |
| Cc1cc(-n2c(C)cc(C(=O)COc3ccc4ccc(=O)oc4c3)c2C)no1 | -0.124 |
| O=C(Nc1cccc(-c2nc3ncccc3o2)c1)c1sc2ccccc2c1Cl | -0.22 |
| CCOc1ccc(C)cc1S(=O)(=O)n1ccc(C)n1 | -1.18 |
| CNc1nc(-c2ccc([N+](=O)[O-])cc2)cs1 | -0.11 |
| Cn1c(=O)c2c(nc(CN3CCOCC3)n2CC(O)CO)n(C)c1=O (stereo unspecified) | 0.081 |
| CCOC(=O)N1CCN(C(=O)c2cc3c(s2)-c2ccccc2OC3)CC1 | -0.152 |
| Cc1ccc(C(=O)Nc2cc(=O)n(C)c(=O)n2C)cc1C | -0.313 |

| SMILES | z-score |
| --- | --- |
| CCOC(=O)c1ccc(S(=O)(=O)Nc2ccc3cn[nH]c3c2)cc1 | -0.0633 |
| O=S(=O)(c1ccccc1)c1nc(-c2cccs2)oc1NCC1CCCO1 (stereo unspecified) | -0.672 |
| O=C(NCCN1CCOCC1)N1c2ccccc2Sc2ccccc21 | 0.897 |
| c1ccc(CN2CCC(Nc3nc(-c4ccccc4)nc4ccccc34)CC2)cc1 | 0.64 |
| Cc1cc(C)nc(N(C#N)CC(=O)c2ccccc2)n1 | -0.609 |
| N#Cc1c(-c2ccc(C(F)(F)F)cc2)cc(-c2ccccc2)[nH]c1=S | 1.24 |
| CCSc1nnc(NC(=O)COc2cccc3ccccc23)s1 | 0.16 |
| CN(C)S(=O)(=O)c1ccc(C(=O)Nc2ccccn2)cc1 | -0.0975 |
| CCN1C(=O)CC(N2CCN(c3ccc(C(=O)c4ccncc4)cc3)CC2)C1=O (stereo unspecified) | -0.229 |
| CCSc1nnc(-c2ccc(S(=O)(=O)N3CCCC3)cc2)n1C | -0.0103 |
| CC1CC(C)(C)NC(=S)N1CC(=O)NCc1ccc(Cl)cc1 (stereo unspecified) | -0.00944 |
| Cc1ccc(SC(c2ccc(C)cc2)C(Cn2cncn2)C(=O)c2ccccc2)cc1 (stereo unspecified) | 0.157 |
| CSc1nnc(-c2cc3c(s2)-c2ccccc2CC3)o1 | 0.0264 |
| CCOC(=O)c1sc(NC(=O)c2ccc(C)s2)cc1C | -0.192 |
| CC(=O)Oc1ccc(-c2nc(-c3cccnc3)no2)cc1 | -0.307 |
| CN1CCCc2cc(C#N)c(=O)[nH]c21 | -0.114 |
| CCn1c(SCC(=O)Nc2nc(-c3ccc(C)cc3)cs2)nnc1-c1ccccc1 | 0.49 |
| CC(C)C(OC(=O)c1ccco1)C(=O)NCc1ccccc1 (stereo unspecified) | -0.0488 |
| Cc1ccc(C(C)C)c(OCC(=O)Nn2c(C)nc3ccccc3c2=O)c1 | 0.0308 |
| CC(OC(=O)c1cc2sccc2n1C)C(=O)NCC1CCCO1 (stereo unspecified) | -0.0132 |
| CCCC1(C)SC(NC(C)=O)=NN1C(C)=O (stereo unspecified) | -0.232 |
| CCOc1ccc(C(=O)CSc2nnc(C3CC3)n2C)cc1 | 0.371 |
| O=C(CCn1c(=O)c2sccc2n(CC(=O)OCc2ccccc2)c1=O)NCc1ccccc1 | -0.217 |

| SMILES | z-score |
| --- | --- |
| CCOc1ccc(-n2nc(C(=O)N3CCN(CC)CC3)c3ccccc3c2=O)cc1 | -0.191 |
| C/C(CC(=O)Nc1ccc(Cl)c(C(F)(F)F)c1)=N\NC(=O)c1cccc(O)c1 | -0.177 |
| COc1cccc(Nc2nnc(SCC(=O)N3CCOCC3)s2)c1 | -0.21 |
| C=CCN(CC(=O)Nc1c(C)cccc1CC)C(=O)SCCC | -0.0916 |
| COc1cccc(Cn2cnc3c(NS(=O)(=O)c4cccc(Cl)c4Cl)c(C)c(C)cc32)c1 | -0.00392 |
| COc1cc(/C=N/NC(=O)Nc2ccccc2)ccc1OCCOc1ccccc1C | -0.208 |
| COc1ccc(OC)c(N(CC(=O)N2CCCC2)S(=O)(=O)c2ccc(OC)c(OC)c2)c1 | -0.00672 |
| Cc1ccc(-c2ccc(OCC(=O)N3CCOCC3)cc2)cc1 | 1.26 |
| CCOC(=O)c1c(C)oc2cc(Br)c(OCC(N)=O)cc12 | 1.13 |
| Cc1cc(C)c(C)c(S(=O)(=O)N2CCN(CC(=O)NC(=O)NCc3ccccc3)CC2)c1C | 0.0583 |
| COC(=O)c1c(NC(=O)/C=C/C(=O)O)sc(Cc2ccccc2)c1C | -0.663 |
| Cc1c(NC(=O)c2cccc(F)c2)c(=O)n(-c2ccccc2)n1C | -0.22 |
| COc1ccc([N+](=O)[O-])cc1C1NN=C(c2cccc3ccccc23)S1 (stereo unspecified) | 0.135 |
| COc1ccc(NC(C)C(=O)Nc2cc(C(F)(F)F)ccc2N2CCOCC2)c(OC)c1 (stereo unspecified) | -0.332 |
| CCCCN1C2=C(C(=O)CC(C)(C)C2)C(c2ccccc2)C2=C1c1ccccc1C2=O (stereo unspecified) | -0.424 |
| Cn1c(-[n+]2c(-c3ccccc3)cc(-c3ccccc3)cc2-c2ccccc2)nc2cc([N+](=O)[O-])ccc21 | -0.139 |
| CCOC(=O)c1c(C)n(C)c2ccc(OC)c(NC(=O)CN3CCC4(CC3)OCCO4)c12 | -0.405 |
| CCOC(=O)c1oc2cc(O)ccc2c(=O)c1-c1ccc(OC)cc1 | -0.261 |
| N=C1CCCN1CC(=O)c1ccc(Br)cc1 | 0.153 |
| O=c1nc(NCc2ccco2)sc2ncccc12 | 0.489 |
| O=[N+]([O-])c1cccc(-n2nnnc2CN2CCCCCC2)c1 | -0.013 |
| CCOCCOC(=O)C(C)Sc1n[nH]c(=O)[nH]c1=O (stereo unspecified) | -0.177 |
| CCN(CC)c1ncnc2c1sc1nc(C)cc(C)c12 | 0.224 |

| SMILES | z-score |
| --- | --- |
| CCOC(=O)C1=C(C)N(c2ccccc2)C(=O)C1 | -0.0976 |
| O=C(Cc1cccs1)N/N=C/C=C\c1ccco1 | -0.214 |
| O=S(=O)(Nc1ccc(Cc2ccncc2)cc1)c1ccc(Br)cc1 | -0.0457 |
| Cc1ccc(CSc2nnc(NC(=O)C3COc4ccccc4O3)s2)cc1 (stereo unspecified) | 0.266 |
| CC(=O)c1nnn(-c2nc(N3CCCC3)nc(N(c3ccccc3)c3ccccc3)n2)c1C | 0.0098 |
| CCCc1cc(=O)[nH]c(SCc2ccc(Cl)cc2)n1 | -0.8 |
| COc1cc(C(=O)NCC(c2cccnc2)N2CCN(C)CC2)cc(OC)c1OC (stereo unspecified) | 0.674 |
| CCCCC(CC)Cn1c(O)c(/C=C2\C=NN=C2c2ccccc2)sc1=S (stereo unspecified) | -0.0682 |
| COc1cc(OC)cc(-n2nc(C(=O)N3CC(C)CC(C)C3)c3ccccc3c2=O)c1 (stereo unspecified) | -0.264 |
| N#Cc1cccc(NC(=O)N2CCC(c3nc4c(nnn4Cc4cccc(Cl)c4)c(=O)[nH]3)CC2)c1 | -0.0995 |
| c1coc(C2Nc3ccccc3C3OCCC23)c1 (stereo unspecified) | 0.588 |
| CS(=O)(=O)N(CC(=O)Nc1cccnc1)c1ccc2c(c1)OCCO2 | 0.255 |
| O=c1[nH]c(N2CCc3ccccc3C2)nc2c1CCCC2 | -0.332 |
| CC(NC(=O)c1ccco1)C(=O)Nc1nc(-c2ccccn2)cs1 (stereo unspecified) | 0.159 |
| CCN(CC)CCn1c(SCC(=O)NCc2ccco2)nc2c(sc3ccccc32)c1=O | -0.759 |
| Clc1cccc(CSc2nnc(-c3sccc3-n3cccc3)o2)c1 | 0.0269 |
| O=C(Nn1c(O)c(C=C2N=c3ccccc3=N2)sc1=S)c1ccccc1Cl | -0.408 |
| COc1ccc(N2C(=O)C(Cl)=C(NCc3ccccc3)C2=O)cc1 | -0.782 |
| CC(C)CCNC(=O)C(C)N(C(=O)Cn1nnc(-c2ccc(F)cc2)n1)C1CCCC1 (stereo unspecified) | 2.82 |
